According to article PMC7819943, “Rice protein-binding microarrays: a tool to detect cis-acting elements near promoter regions in rice”:
The list shows a part of the results.

These sequences were tested against T1, OsWOX13 (Oryza sativa, UniProt Q5QMM3 1-267) (assay: protein-binding microarray (RPBM); PBS, 2% BSA, 51.3 ng/ul salmon testes DNA, 50 uM zinc acetate, 200 nM TF, 25 C, 1 h; high values mean tight binding). Details: protein: recombinant; tags: N-terminal polyhistidine and DsRed monomer fusion (pET32a); label: CyDye5-dUTP incorporated in the synthesized complementary strand; 3' TTTTT single-stranded linker to array surface; dsDNA, one strand shown.
T1 sequence: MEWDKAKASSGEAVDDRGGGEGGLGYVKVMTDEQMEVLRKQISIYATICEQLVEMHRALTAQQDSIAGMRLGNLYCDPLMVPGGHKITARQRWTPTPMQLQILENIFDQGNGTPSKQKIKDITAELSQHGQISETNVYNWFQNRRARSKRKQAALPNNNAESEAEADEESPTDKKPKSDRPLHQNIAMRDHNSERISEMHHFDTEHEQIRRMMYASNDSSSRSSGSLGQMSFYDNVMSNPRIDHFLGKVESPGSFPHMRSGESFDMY
In short: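 Using Ni–NTA, transcription factors fused N-terminally to polyhistidine and DsRed were purified after expression in E. coli BL21-CodonPlus. These were incubated at 200 nM with a blocked, double-stranded custom Agilent array for 1 h at 25 °C in a buffer containing 50 µM zinc acetate, and the array was washed. The binding signal is per-feature fluorescence intensity (arbitrary units) on an Axon 4000B scanner.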

Sequence | binding signal
ACCTTGATTTTCATGATACTTTATTTTCTTCAACATCGTACGGAGTCACCTAGTGCAG | 16600 fluorescence intensity (a.u.)
TTGAGCCTAATTACGCCATGATTTGACAATGTGATGCTACCGGAGTCACCTAGTGCAG | 40200 fluorescence intensity (a.u.)
TTCCCAATCTCCTCAATCACCTTCTCCTCAAACACACCCTCGGAGTCACCTAGTGCAG | 25400 fluorescence intensity (a.u.)
AGATATAATTTGATAAATTTACATCATCAGTGAATCAATCCGGAGTCACCTAGTGCAG | 25000 fluorescence intensity (a.u.)
CCCAGTTTGATCACAACCTAATCAAGAGCTTAATTTAGAACGGAGTCACCTAGTGCAG | 6120 fluorescence intensity (a.u.)
TTCTGTAAATCTGTAATTCTGAATTGTCTGCAAATTTGCACGGAGTCACCTAGTGCAG | 3720 fluorescence intensity (a.u.)
GCAATCAATAATGTACAGTATAACTCTGTTGACTTTTGAACGGAGTCACCTAGTGCAG | 11800 fluorescence intensity (a.u.)
ATAGATGCTAATTGCATAGGAGTAACTTACAAGGGACTTTCGGAGTCACCTAGTGCAG | 6360 fluorescence intensity (a.u.)
CCCTGATGATCTATCGTCACTGACAGAGCTCACACTGCTGCGGAGTCACCTAGTGCAG | 15300 fluorescence intensity (a.u.)
ACAGACTTAACAATAATTTTATCATAGATATAGATTAAGTCGGAGTCACCTAGTGCAG | 11300 fluorescence intensity (a.u.)
AACTACAAAATTGATTTCGATTTGATTGCTCCTAAACGTTCGGAGTCACCTAGTGCAG | 36900 fluorescence intensity (a.u.)
GATCGAGTTAATTAATCTCTATCCCGCATGTAATATAATGCGGAGTCACCTAGTGCAG | 10500 fluorescence intensity (a.u.)
TAAATTTAACATTAAATATACTATGATAATATGTTTGTTTCGGAGTCACCTAGTGCAG | 7030 fluorescence intensity (a.u.)
TAAATTATCATAAACCACATTAATTTACTTAATCTGATATCGGAGTCACCTAGTGCAG | 17600 fluorescence intensity (a.u.)
ATGACTGCACTTAAAATGGGATGGAGGGAGTAGTAGACATCGGAGTCACCTAGTGCAG | 3700 fluorescence intensity (a.u.)
TGTCCCTGTCTATTTTACCTCTATATCGCACGTACTCCGGCGGAGTCACCTAGTGCAG | 3710 fluorescence intensity (a.u.)
TGTTAAATTTAGGGAGAACTTTACTCCACCAGTAGATTGGCGGAGTCACCTAGTGCAG | 5050 fluorescence intensity (a.u.)
TCAATCAATCGATCGATCAATCAATCGTGCAAGGGAAGAACGGAGTCACCTAGTGCAG | 18800 fluorescence intensity (a.u.)
CAGCCATATGATTAGTGCTCCGTATTACTTAGAATCAAGCCGGAGTCACCTAGTGCAG | 13200 fluorescence intensity (a.u.)
TCATCAATCATCCGTGGCACCAGAACACCAAGATTGCGTCCGGAGTCACCTAGTGCAG | 23300 fluorescence intensity (a.u.)
CTACGTTTAATATTTATAATTAGTGTTCAAACATTCGATACGGAGTCACCTAGTGCAG | 3340 fluorescence intensity (a.u.)

Sequence | binding signal
TTCAGAATTATATTTCTAATCAGCATGGCCAGTGGCGAATCGGAGTCACCTAGTGCAG | 5900 fluorescence intensity (a.u.)
TCGGTAACCATATTTTGATTGGTTTGACAGGGTTCCATTACGGAGTCACCTAGTGCAG | 21400 fluorescence intensity (a.u.)
TGGACCATGTGATTGTCAATGACAATGACCCATCATTGATCGGAGTCACCTAGTGCAG | 14400 fluorescence intensity (a.u.)
TTAAATGGAGGAGCCAATCTATCTGGCCTTTTCTCTCCTCCGGAGTCACCTAGTGCAG | 6950 fluorescence intensity (a.u.)
TCAAAATTAGTCCAACAATTGAGGTTAACATTCTATCTCACGGAGTCACCTAGTGCAG | 6500 fluorescence intensity (a.u.)
CAAATTTATTGAGCTCAATTAATCCGTCATTAGCAAATGTCGGAGTCACCTAGTGCAG | 16800 fluorescence intensity (a.u.)
CGATGATTCTTCAATTAATTACACAGCTCTAGTGTGTAAACGGAGTCACCTAGTGCAG | 42100 fluorescence intensity (a.u.)
TTTGTTGCTTTACTTGGGAGATTGATCGCTAAACGAGTCACGGAGTCACCTAGTGCAG | 3150 fluorescence intensity (a.u.)
AAGCATGATTAGCATATAACTAATCGAGTATTTGTTATTACGGAGTCACCTAGTGCAG | 21400 fluorescence intensity (a.u.)
CGCTTATAAATTAATCCCGGGCATGTACACGCGAGAACGGCGGAGTCACCTAGTGCAG | 5780 fluorescence intensity (a.u.)
AATTTTCTTATGATTAGCATTTCTATTGCTATTAGATGATCGGAGTCACCTAGTGCAG | 8930 fluorescence intensity (a.u.)
ATAGATTAATGGGCATTAATAGTGAAAGTTTGAATTATGACGGAGTCACCTAGTGCAG | 16900 fluorescence intensity (a.u.)
TCAGATTAGTTGACTAGCAAGCTACTCCTAGTACAGGTTACGGAGTCACCTAGTGCAG | 6290 fluorescence intensity (a.u.)
AATTAATCAACTAGTATTATAAAGTTTGAAAAGGTTGGTTCGGAGTCACCTAGTGCAG | 3510 fluorescence intensity (a.u.)
CATTAATCACCCTTCATCATTAATTAATTTTCCTCGACAACGGAGTCACCTAGTGCAG | 18300 fluorescence intensity (a.u.)
TAGTAATTAGCCTAGTAACCCGTCATGATTAAGCCAGATTCGGAGTCACCTAGTGCAG | 17600 fluorescence intensity (a.u.)
GGTAGCACTCAATTAAAATAATCCCTTGAGAGCATGCAATCGGAGTCACCTAGTGCAG | 3250 fluorescence intensity (a.u.)
TAAATTTAATGAAGCTAATTTAGTGTTGTAGATGTTGCTACGGAGTCACCTAGTGCAG | 23300 fluorescence intensity (a.u.)
TCTGCAATTTAACACTGACTGACGTGTACCCAGCGAGTAGCGGAGTCACCTAGTGCAG | 11700 fluorescence intensity (a.u.)
TTTAGAGCACCAATCATAACCCATAAATCCGTGGGCTACTCGGAGTCACCTAGTGCAG | 11700 fluorescence intensity (a.u.)
ATGGATTAATTAGGCTCAAAAGATTCATTTCGCAATTCTTCGGAGTCACCTAGTGCAG | 20000 fluorescence intensity (a.u.)

Sequence | binding signal
GTGAATTGACCGTACATGATATTACCACTTTACCAGGCGTCGGAGTCACCTAGTGCAG | 10500 fluorescence intensity (a.u.)
GTATGACAGGTTGGACCATATATTAATAGTGTAGTATATACGGAGTCACCTAGTGCAG | 6520 fluorescence intensity (a.u.)
TCTCTGATTGCCACTATGCTTCTCATTGCTTCTCTAAAGACGGAGTCACCTAGTGCAG | 36000 fluorescence intensity (a.u.)
TTTGTTAATTATACTAGTTTAGTAGTATCATTACCACGCTCGGAGTCACCTAGTGCAG | 8660 fluorescence intensity (a.u.)
CTTTGACTAAATCAAAACGTCTTATAACCTGAAACGAAGGCGGAGTCACCTAGTGCAG | 12400 fluorescence intensity (a.u.)
CAAAATTTGCTAAATTAAACCACACATATGATTTTATATGCGGAGTCACCTAGTGCAG | 20500 fluorescence intensity (a.u.)
TCCTGATAACATGTCCTAATCAAGTTTTGTGAAAGCTCAGCGGAGTCACCTAGTGCAG | 11400 fluorescence intensity (a.u.)
GTTAATTAGATGGGCTTATCCTACACCAAAATTAGCAGCGCGGAGTCACCTAGTGCAG | 42400 fluorescence intensity (a.u.)
TTACAAATTTAAAGTTGAAAATTCATCGATAAGTACCAGCCGGAGTCACCTAGTGCAG | 4120 fluorescence intensity (a.u.)
TTTCCATCATTGATCAAGGCATAAATCAATGGCTCATATTCGGAGTCACCTAGTGCAG | 10400 fluorescence intensity (a.u.)
CAGTATATATAATTAATTAATTAATCAAATTAACACAAGCCGGAGTCACCTAGTGCAG | 31500 fluorescence intensity (a.u.)
GTACAGTGTACTTGATTGAGTTGACAGTCATACTCTACTACGGAGTCACCTAGTGCAG | 18500 fluorescence intensity (a.u.)
GACACAAACTGACTGGATTATGATGGGAGCAATCAATGATCGGAGTCACCTAGTGCAG | 17600 fluorescence intensity (a.u.)
CAATCCCAATCCCAATCAATCCCTCTCTCCATCTGGTGCTCGGAGTCACCTAGTGCAG | 14500 fluorescence intensity (a.u.)
ATCTTGCTGATTTTGTTGTTGATTTGAATGCTATGTAAACCGGAGTCACCTAGTGCAG | 11600 fluorescence intensity (a.u.)
GTTTAATCTGTCACTGTCAGTCTGACACCCAAATTACTATCGGAGTCACCTAGTGCAG | 11400 fluorescence intensity (a.u.)
TGCTTATCTGATTAAAATTTGATTGTACCATTGAATTAGTCGGAGTCACCTAGTGCAG | 26800 fluorescence intensity (a.u.)
CCGGATGACATGATGACACCGCTACCCATTAAGTTTCGTCCGGAGTCACCTAGTGCAG | 6720 fluorescence intensity (a.u.)
GAGATTGACGAAGTCACCATAGACATCTTGCTATCGACGGCGGAGTCACCTAGTGCAG | 37300 fluorescence intensity (a.u.)
AACCTGTCACTTTCACCTATTATTATTACTGGATTATTACCGGAGTCACCTAGTGCAG | 3550 fluorescence intensity (a.u.)
ATCCTAATTAATAGATACAATTGCCTCCTCAGGACTTTATCGGAGTCACCTAGTGCAG | 18100 fluorescence intensity (a.u.)

Sequence | binding signal
TACTAACTCCAAATCATCAATAGTCAATTTAATAGCCAACCGGAGTCACCTAGTGCAG | 6420 fluorescence intensity (a.u.)
TGATAAATTAATTCGAACAGATACGATGTTTATGGTAGCGCGGAGTCACCTAGTGCAG | 24700 fluorescence intensity (a.u.)
TCAAGAATTATAGTTGATTTTATATTGGAGATTTGTTAACCGGAGTCACCTAGTGCAG | 4000 fluorescence intensity (a.u.)
CTGAAAGGCAATTAAGACACAACCCTCAGAAGTACTTACCCGGAGTCACCTAGTGCAG | 10100 fluorescence intensity (a.u.)
TTGATATATTTACATTGTAATTTTCAAATCTTACATGTAACGGAGTCACCTAGTGCAG | 5100 fluorescence intensity (a.u.)
GATCCAAATTGATGAAGTTTACAGCAGCAGCAGTAACAGTCGGAGTCACCTAGTGCAG | 28900 fluorescence intensity (a.u.)
TCTCCAGATTGGTGGCAATCCCTTGCCGCGTGTCCACCTGCGGAGTCACCTAGTGCAG | 5490 fluorescence intensity (a.u.)
GGGTTAATTAATACTCCCTTCGTTTGTTTCATATTATAAGCGGAGTCACCTAGTGCAG | 26400 fluorescence intensity (a.u.)
ACCTTTTCCGCGTGTTGTGTCTGTTTGTTGAAGATGAATTCGGAGTCACCTAGTGCAG | 3280 fluorescence intensity (a.u.)
CGACAAATTATTTGAAACAAGCAGGAGATTGAACTGCTACCGGAGTCACCTAGTGCAG | 15100 fluorescence intensity (a.u.)
GTAGTTAACCATTTAACCTGATGATGTGAGGACGAAAGAACGGAGTCACCTAGTGCAG | 4950 fluorescence intensity (a.u.)
GTGATTTTATTAAATCTCGAGATATATCGTTTCAAGGTTGCGGAGTCACCTAGTGCAG | 3750 fluorescence intensity (a.u.)
TGAAATTTTAAAATTTTAATTGTACACATTCTATAATGCACGGAGTCACCTAGTGCAG | 26400 fluorescence intensity (a.u.)
ATTAATTACACAATCGTGCGGTCGGTACAGGCCTCACAAGCGGAGTCACCTAGTGCAG | 13300 fluorescence intensity (a.u.)
AATCATTTTCCATCACATCAACCTGTCATACACACATAACCGGAGTCACCTAGTGCAG | 5620 fluorescence intensity (a.u.)
AAGCGAGCAGCTCTGATTGTTTACACATTACGACAACACTCGGAGTCACCTAGTGCAG | 3520 fluorescence intensity (a.u.)
ACAAATTACCTAGAGTATATCAAGAGAGAGAAGAATGGAGCGGAGTCACCTAGTGCAG | 3250 fluorescence intensity (a.u.)
GACAGGATTATCACCTATTTGTCAACAGTTCACCAGGAGCCGGAGTCACCTAGTGCAG | 3360 fluorescence intensity (a.u.)
GTAATTAGATAATCGATTAGCAGATGCTAAGCAAGAATGCCGGAGTCACCTAGTGCAG | 22600 fluorescence intensity (a.u.)
TCAGACGAGACTGGTGGTGGGGTCAGGTGGGTTACTCGTCCGGAGTCACCTAGTGCAG | 3810 fluorescence intensity (a.u.)
GTGAGAATGGATTTAAATTGAAGGTAAATGTATGGTTTTCCGGAGTCACCTAGTGCAG | 19600 fluorescence intensity (a.u.)
